The supplement of paper PMC10126150
Sequences with one replicate were seen in a single cluster, so their values are uncertain.

Tested on: ATP
Experiment: switch fluorescence ratio, 500 uM ATP over buffer (Cy3 cluster intensity, sum of 5 cycles each) (fold (ratio)); higher = stronger signal-on switching upon ATP binding; sequences stand for … in TCGTCGGCAGCGTCAGATGTGTATAAGAGACAGTTTTTTTTTTTTTTTTTTTTTTTTT…TC
Conditions: aptamer strand: ATP DNA aptamer (quencher-CACCTGGGGGAGTATTGCGGAGGAAGG + anchor), 100 nM annealed; ATP concentration: 500 uM; one replicate
How it was run: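 The fluorescence ratio divides summed target-cycle Cy3 intensity by summed buffer-cycle Cy3 intensity for each cluster and is averaged per switch-domain sequence. Cy3-labelled switching-strand clusters on a modified Illumina MiSeq flow-cell were annealed to 100 nM quencher-labelled ATP aptamer, then imaged in selection buffer and again after 15 min with 500 uM ATP at 22 °C. Five such cycles were run, with NaOH stripping and re-annealing between them, and clusters outside 100-1000 RFU were excluded.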
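Also: ATP exposure 15 min at 22 °C before imaging.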

Row | Sequence | switch fluorescence ratio
1 | CATACCTCT | 1.01
2 | CATACGCCAA | 7.48
3 | CATACGGATG | 0.987
4 | CATAGACCTT | 1.21
5 | CATAGATAGT | 0.991
6 | CATAGCGAAA | 1.06
7 | CATAGCGTCC | 1.06
8 | CATAGGGTAG | 0.975
9 | CATAGGTGAA | 0.962
10 | CATAGTATAC | 1.29
11 | CATAGTGAA | 1.03
12 | CATATATTCG | 1
13 | CATATCACGG | 0.993
14 | CATATCTTAG | 1.02
15 | CATATGACGA | 1
16 | CATATTCATT | 0.999
17 | CATATTTACC | 1.06
18 | CATCAATATA | 1.05
19 | CATCACAGAG | 0.964
20 | CATCACATCT | 1.05
21 | CATCACCTGC | 1.07
22 | CATCAGATTA | 1.04
23 | CATCAGCCGA | 1.13
24 | CATCATGGCT | 1.01
25 | CATCATTAGT | 1.02
26 | CATCCCCTTT | 1.07

Row | Sequence | switch fluorescence ratio
27 | CATCCCGGCA | 1.23
28 | CATCCCGTGA | 1.22
29 | CATCCTGACT | 1.31
30 | CATCGCAGAG | 1.17
31 | CATCGCCTTG | 0.993
32 | CATCGCTAGA | 1.03
33 | CATCGGGGCA | 1.01
34 | CATCGGGTTA | 1.08
35 | CATCTAGCGC | 1.04
36 | CATCTGCAG | 2.94
37 | CATCTGGCGA | 1.88
38 | CATCTTGTCA | 1
39 | CATGAAACGA | 1.04
40 | CATGAAACTC | 0.993
41 | CATGAAAGGT | 1.03
42 | CATGAACCCT | 1.11
43 | CATGAATCTC | 0.999
44 | CATGACAAGT | 0.992
45 | CATGACAGTG | 1.01
46 | CATGAGACGA | 0.965
47 | CATGAGGTTT | 0.995
48 | CATGAGTTA | 1.03
49 | CATGAGTTAA | 1.02
50 | CATGAGTTTT | 0.94
51 | CATGATAAGC | 1.01
52 | CATGATATCA | 1.01

Row | Sequence | switch fluorescence ratio
53 | CATGATATTG | 0.961
54 | CATGATGCAC | 1.06
55 | CATGATTG | 0.986
56 | CATGCAAACC | 1.27
57 | CATGCGGATC | 1.08
58 | CATGCGGGGA | 0.982
59 | CATGCTGTTA | 1.03
60 | CATGCTTAGT | 1.02
61 | CATGGCATAA | 1.08
62 | CATGGCCGTT | 0.951
63 | CATGGCGAGG | 1.02
64 | CATGGCGCAG | 1
65 | CATGGGCAGG | 1.1
66 | CATGGGCGAG | 1.16
67 | CATGGGGGAA | 1.01
68 | CATGGGTGC | 1.06
69 | CATGGTAGGG | 1.01
70 | CATGGTGCTC | 1.04
71 | CATGTATTGC | 0.973
72 | CATGTCTCTG | 1.04
73 | CATGTGCTAC | 2.82
74 | CATGTGGTGT | 0.983
75 | CATGTTAAAT | 0.998
76 | CATGTTCGAT | 0.93
77 | CATGTTTAAT | 1.01
78 | CATTAAATA | 0.966

Row | Sequence | switch fluorescence ratio
79 | CATTAACCAC | 0.995
80 | CATTAAGCCT | 1.11
81 | CATTACCTA | 1.06
82 | CATTACGATT | 1.05
83 | CATTAGAGCC | 0.952
84 | CATTAGATTT | 0.971
85 | CATTAGCTCT | 0.996
86 | CATTAGGAGT | 0.985
87 | CATTATAGGG | 0.954
88 | CATTATATA | 1.02
89 | CATTCCACTT | 1.02
90 | CATTCCTATT | 0.991
91 | CATTCCTTAC | 2.22
92 | CATTCGTACT | 1.11
93 | CATTCTATAC | 1.43
94 | CATTCTATAT | 0.95
95 | CATTCTTGGG | 0.986
96 | CATTGATGCC | 1.09
97 | CATTGATGGG | 0.945
98 | CATTGCCAGC | 1.01
99 | CATTGCCGGG | 1
100 | CATTGGGCAT | 1.04
101 | CATTGTCGGG | 1
